Results taken from publication PMC6664820, “Novel natural and synthetic inhibitors of solute carriers SGLT1 and SGLT2” (Pharmacology Research & Perspectives, 2019).
In all, about 1,900 compounds went through this assay and about 40 (2%) showed an effect of 50% or more. The list shows a part of the results.

The compounds below were run against human SGLT1 (hSGLT1) (human, UniProt P13866) (assay: primary screen, percent of control activity; higher = less effect of the substance). Conditions: 50 µM.
human SGLT1 (hSGLT1), sequence (P13866 whole entry, looked up): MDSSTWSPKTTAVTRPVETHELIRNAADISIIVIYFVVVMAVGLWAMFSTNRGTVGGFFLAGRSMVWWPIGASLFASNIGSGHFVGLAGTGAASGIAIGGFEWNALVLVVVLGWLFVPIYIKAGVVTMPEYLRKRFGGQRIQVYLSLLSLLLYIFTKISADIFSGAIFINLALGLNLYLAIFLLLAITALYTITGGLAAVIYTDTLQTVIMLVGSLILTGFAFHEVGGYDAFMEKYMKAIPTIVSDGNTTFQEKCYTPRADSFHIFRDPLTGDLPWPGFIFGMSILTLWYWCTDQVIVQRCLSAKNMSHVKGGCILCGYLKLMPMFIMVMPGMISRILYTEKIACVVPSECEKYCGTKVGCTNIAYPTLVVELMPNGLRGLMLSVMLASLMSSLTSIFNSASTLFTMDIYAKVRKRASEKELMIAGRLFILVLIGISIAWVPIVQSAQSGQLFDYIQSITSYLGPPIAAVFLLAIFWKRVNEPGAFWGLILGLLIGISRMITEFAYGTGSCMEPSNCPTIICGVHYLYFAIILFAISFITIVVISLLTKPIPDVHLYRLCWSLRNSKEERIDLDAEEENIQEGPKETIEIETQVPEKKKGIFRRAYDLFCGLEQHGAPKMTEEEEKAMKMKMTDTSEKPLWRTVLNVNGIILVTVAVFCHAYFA
Design: single well
How it was run: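 Single-point screen at 50 µmol/L in CHO-hSGLT1 cells, with 160 µmol/L 1-NBD-glucose in glucose-free DMEM for 90 min at 37°C. Fluorescence from isopropanol extracts was calibrated, and CHO wild-type uptake was subtracted. Data are percent of uptake without compound.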
For `O=C(O)CN(CCN(CC(=O)O)CC(=O)O)CC(=O)O.[Na+].[Na+].[Na+]`, the “NORMALIZED SGLT1 ACTIVITY (%)” value was 85%.
For `CO/N=C(\C(=O)N[C@@H]1C(=O)N2C(C(=O)[O-])=C(COC(C)=O)CS[C@H]12)c1csc(N)n1.[Na+]`, the “NORMALIZED SGLT1 ACTIVITY (%)” value was 112%.
In the case of `COc1ccc(/C=C/C(=O)O)cc1OC`, the “NORMALIZED SGLT1 ACTIVITY (%)” value is reported as 166%.
`O=C1[C@H](CC[C@H](O)c2ccc(F)cc2)[C@@H](c2ccc(O)cc2)N1c1ccc(F)cc1` was tested, and the “NORMALIZED SGLT1 ACTIVITY (%)” value was 381%.
In the case of `COc1ccc(-c2cc(=O)c3ccccc3o2)cc1`, the “NORMALIZED SGLT1 ACTIVITY (%)” value is reported as 199%.
In the case of `Cc1onc(-c2ccccc2)c1-c1ccc(S(N)(=O)=O)cc1`, the “NORMALIZED SGLT1 ACTIVITY (%)” value is reported as 121%.
`COc1c(C(=O)O)ccc2c1CCC(C)(C)O2` was tested, and the “NORMALIZED SGLT1 ACTIVITY (%)” value was 115%.
With `CC(=O)O[C@@H]1CC2C(C)(C)C(=O)C3OC3[C@]2(C)C2CC[C@@]3(C)[C@H](c4ccoc4)OC(=O)C4OC43[C@@]21C` (stereo partly drawn) the “NORMALIZED SGLT1 ACTIVITY (%)” value was 138%.
In the case of `C[C@@H]1CC[C@@]23CCC4(C)[C@@](C=CC5[C@@]6(C)CCC(=O)C(C)(C)C6CC[C@]54C)(OC2=O)C3[C@H]1C` (stereo partly drawn), the “NORMALIZED SGLT1 ACTIVITY (%)” value is reported as 93%.
For `NC(=O)NC1NC(=O)NC1=O` (stereo not drawn), the “NORMALIZED SGLT1 ACTIVITY (%)” value was 91%.
For `CCCCCCCCCCCC1=C(O)C(=O)C=C(O)C1=O`, the “NORMALIZED SGLT1 ACTIVITY (%)” value was 99%.
For `CC(=O)c1cc2c(cc1O)OC(C)(C)C=C2`, the “NORMALIZED SGLT1 ACTIVITY (%)” value was 104%.
`CCS(=O)CCSP(=O)(OC)OC` (stereo not drawn) was tested, and the “NORMALIZED SGLT1 ACTIVITY (%)” value was 98%.
For `CC(C)=CC1C(C(=O)OCc2cccc(Oc3ccccc3)c2)C1(C)C` (stereo not drawn), the “NORMALIZED SGLT1 ACTIVITY (%)” value was 75%.
For `CC(=O)O[C@@H]1CC[C@@]2(C)C(C[C@@H](OC(C)=O)[C@]3(C)C2CC[C@@]2(C)[C@H](c4ccoc4)OC(=O)[C@H]4O[C@]423)C1(C)C` (stereo partly drawn), the “NORMALIZED SGLT1 ACTIVITY (%)” value was 229%.
With `Cc1cn([C@H]2C[C@H](N=[N+]=[N-])[C@@H](CO)O2)c(=O)[nH]c1=O` the “NORMALIZED SGLT1 ACTIVITY (%)” value was 240%.
With `C=C[C@H]1CN2CC[C@H]1C[C@@H]2[C@@H](O)c1ccnc2ccc(OC)cc12.O=C(O)[C@H](O)[C@@H](O)[C@H](O)[C@H](O)CO` the “NORMALIZED SGLT1 ACTIVITY (%)” value was 56%.
`Oc1cc2c(cc1O)C1c3ccc(O)c(O)c3OCC1(O)C2` (stereo not drawn) was tested, and the “NORMALIZED SGLT1 ACTIVITY (%)” value was 143%.
`Cc1cccc(C)c1NC(=O)C1CCCCN1C.Cl` (stereo not drawn) was tested, and the “NORMALIZED SGLT1 ACTIVITY (%)” value was 83%.
In the case of `Cl.O=C(O)c1cn(-c2ccc(F)cc2)c2cc(N3CCNCC3)c(F)cc2c1=O`, the “NORMALIZED SGLT1 ACTIVITY (%)” value is reported as 98%.
`COc1ccc(CC2c3cc(OC)c(OC)cc3CCN2C)cc1OC` (stereo not drawn) was tested, and the “NORMALIZED SGLT1 ACTIVITY (%)” value was 124%.
`CC(=O)O[C@@H]1CC2C(C)(C)CCC(=O)[C@]2(C)C2CC[C@@]3(C)[C@H](c4ccoc4)OC(=O)C4OC43[C@@]21C` (stereo partly drawn) was tested, and the “NORMALIZED SGLT1 ACTIVITY (%)” value was 126%.
For `COc1cc2c(cc1OC)C(=O)OC2`, the “NORMALIZED SGLT1 ACTIVITY (%)” value was 185%.
`COc1ccc2c3c1O[C@H]1C[C@@H](O)C=C[C@@]31CCN(C)C2` was tested, and the “NORMALIZED SGLT1 ACTIVITY (%)” value was 123%.
With `O=c1[nH]cnc2[nH]ncc12` the “NORMALIZED SGLT1 ACTIVITY (%)” value was 109%.
`O=C([O-])P(=O)([O-])[O-].[Na+].[Na+].[Na+]` was tested, and the “NORMALIZED SGLT1 ACTIVITY (%)” value was 112%.
In the case of `COc1ccc2cc([C@H](C)CO)ccc2c1`, the “NORMALIZED SGLT1 ACTIVITY (%)” value is reported as 111%.
For `Cc1c(Cl)cccc1Nc1ccccc1C(=O)O`, the “NORMALIZED SGLT1 ACTIVITY (%)” value was 358%.
With `CCOc1ccc(NC(C)=O)cc1` the “NORMALIZED SGLT1 ACTIVITY (%)” value was 151%.
`C=C1[C@H]2CC[C@@]3(C)[C@H](c4ccoc4)OC(=O)C[C@]13O[C@H]1C[C@H](O)C(C)(C)[C@H](CC(=O)OC)[C@]12C` was tested, and the “NORMALIZED SGLT1 ACTIVITY (%)” value was 115%.
`Nc1ncnc2c1ncn2[C@@H]1O[C@H](CO)[C@@H](O)[C@@H]1O` was tested, and the “NORMALIZED SGLT1 ACTIVITY (%)” value was 107%.
For `CC1(C)C=Cc2cc3ccc(=O)oc3cc2O1`, the “NORMALIZED SGLT1 ACTIVITY (%)” value was 108%.
With `O=C(/C=C/C(=O)Oc1ccccc1C(=O)O)Oc1ccccc1C(=O)O` the “NORMALIZED SGLT1 ACTIVITY (%)” value was 116%.
For `O=C(O)c1cccnc1C(=O)O`, the “NORMALIZED SGLT1 ACTIVITY (%)” value was 124%.
`NC[C@H]1O[C@H](O[C@H]2[C@H](O)[C@@H](O[C@H]3O[C@H](CO)[C@@H](O)[C@H](N)[C@H]3O)[C@H](N)C[C@@H]2N)[C@H](N)[C@@H](O)[C@@H]1O.O=S(=O)(O)O` was tested, and the “NORMALIZED SGLT1 ACTIVITY (%)” value was 89%.
For `CNC(C)(C)Cc1ccccc1.O=S(=O)(O)O`, the “NORMALIZED SGLT1 ACTIVITY (%)” value was 132%.
In the case of `Oc1cc(O)cc(/C=C/c2ccccc2)c1`, the “NORMALIZED SGLT1 ACTIVITY (%)” value is reported as 39%.
With `CC(C)(C)CC(C)(C)c1ccc(O)c(Cc2ccc(Cl)cc2Cl)c1` the “NORMALIZED SGLT1 ACTIVITY (%)” value was 137%.
With `Nc1ccc(S(=O)(=O)Nc2ccc(Cl)nn2)cc1` the “NORMALIZED SGLT1 ACTIVITY (%)” value was 86%.
In the case of `CNC(=O)Oc1ccc2c(c1)[C@]1(C)CCN(C)[C@@H]1N2C.O=C(O)c1ccccc1O`, the “NORMALIZED SGLT1 ACTIVITY (%)” value is reported as 102%.
In the case of `CCOC(=O)c1ccc(N)cc1`, the “NORMALIZED SGLT1 ACTIVITY (%)” value is reported as 116%.
For `CC(=O)O[C@H]1C[C@@H](OC(C)=O)C(C)(C)C2CC(=O)[C@]3(C)C(CC[C@@]4(C)[C@H](c5ccoc5)OC(=O)[C@H]5O[C@]543)[C@]21C` (stereo partly drawn), the “NORMALIZED SGLT1 ACTIVITY (%)” value was 147%.
`O=C([O-])Cc1ccccc1Nc1c(Cl)cccc1Cl.[Na+]` was tested, and the “NORMALIZED SGLT1 ACTIVITY (%)” value was 128%.
With `O=C(O)CCc1nc(-c2ccccc2)c(-c2ccccc2)o1` the “NORMALIZED SGLT1 ACTIVITY (%)” value was 231%.
In the case of `COC(=O)[C@]1(C)CC[C@]2(C)CC[C@]3(C)C4=CC=C5C(=CC(=O)C(O)=C5C)[C@]4(C)CC[C@@]3(C)[C@@H]2C1`, the “NORMALIZED SGLT1 ACTIVITY (%)” value is reported as 121%.
In the case of `CCCCCCCCCCCCCCCCOP(=O)([O-])OCC[N+](C)(C)C`, the “NORMALIZED SGLT1 ACTIVITY (%)” value is reported as 79%.
For `C#CCN(C)Cc1ccccc1.Cl`, the “NORMALIZED SGLT1 ACTIVITY (%)” value was 134%.
`COC1=CC23CCCN2CCc2cc4c(cc2C3C1O)OCO4` (stereo not drawn) was tested, and the “NORMALIZED SGLT1 ACTIVITY (%)” value was 107%.
In the case of `Cc1cc(O)c(C=O)c2c1C(=O)Oc1c(C)c(O)c3c(c1O2)C(O)OC3=O` (stereo not drawn), the “NORMALIZED SGLT1 ACTIVITY (%)” value is reported as 142%.
`COc1ccc2c(c1)OC1(O)COc3cc(OC)c(OC)cc3C1=C2` (stereo not drawn) was tested, and the “NORMALIZED SGLT1 ACTIVITY (%)” value was 172%.
With `CCCCCCCCC(=O)NCc1ccc(O)c(OC)c1` the “NORMALIZED SGLT1 ACTIVITY (%)” value was 161%.
With `CC(=O)OC1CCC23C(=O)OC45CCC(C6=CC(=O)OC6)C4(C)CCC2C5CCC3(O)C1` (stereo not drawn) the “NORMALIZED SGLT1 ACTIVITY (%)” value was 99%.
`CC(C)c1ccc2c(c1)CCC1C(C)(C(N)=O)CCCC21C` (stereo not drawn) was tested, and the “NORMALIZED SGLT1 ACTIVITY (%)” value was 136%.
For `O=c1c(O)cc([C@H]2Oc3cc(O)cc(O)c3C[C@H]2O)cc2c([C@H]3Oc4cc(O)cc(O)c4C[C@H]3O)cc(O)c(O)c12`, the “NORMALIZED SGLT1 ACTIVITY (%)” value was 130%.
`CN(Cc1cnc2nc(N)nc(N)c2n1)c1ccc(C(=O)N[C@@H](CCC(=O)O)C(=O)O)cc1` was tested, and the “NORMALIZED SGLT1 ACTIVITY (%)” value was 94%.
For `CN1C[C@H](C(=O)N[C@]2(C)O[C@@]3(O)[C@@H]4CCCN4C(=O)[C@H](Cc4ccccc4)N3C2=O)C[C@@H]2c3cccc4[nH]cc(c34)C[C@H]21.CS(=O)(=O)O`, the “NORMALIZED SGLT1 ACTIVITY (%)” value was 230%.
For `CC(=O)O[C@H]1CC[C@]2(C)C3=CC(=O)[C@@]4(C)C(C[C@@H]5OC6(OCC(C)CC6Br)[C@@H](C)[C@@H]54)C3CC[C@H]2C1` (stereo partly drawn), the “NORMALIZED SGLT1 ACTIVITY (%)” value was 164%.
